Laboratory results published in PubChem BioAssay AID1768 (National Center for Advancing Translational Sciences (NCATS), 2009).
Among all 270,000 compounds or so, about 620 (0.23%) were called active. Inconclusive means that the source gave no clear call. Such entries were picked first, then a sample of the others. Calls follow the shape of the dose curve; as a rule, active = well fitted inhibition curve with a large enough effect in the polarisation, with a control signal flat (not every such curve was filed as active); inconclusive = small, poorly fitted or top-dose-only effect, or effect the other way, or a change in a side signal; inactive = no such curve, though single readings can be large or run the other way; the % refers to the polarisation. Potencies beside an inconclusive call are fits to weak or partial responses and may not hold up. “Side channel” marks fits to a control or component signal instead of the main read-out.

What follows are molecules tested against Menin (Homo sapiens) (UniProt O00255) (assay: qHTS Assay for Inhibitors Targeting the Menin-MLL Interaction in MLL Related Leukemias: Competition With Texas Red Labeled MLL-derived Mutant Peptide). Settings: fluorescence polarization; series mostly up to 61.6 µM.
Potency is read from the fitted curve at half-maximal effect; tags tell the direction and shape of the fitted curve or compound fluorescence and quenching.

Chain of UniProt O00255 (O00255 whole entry, looked up): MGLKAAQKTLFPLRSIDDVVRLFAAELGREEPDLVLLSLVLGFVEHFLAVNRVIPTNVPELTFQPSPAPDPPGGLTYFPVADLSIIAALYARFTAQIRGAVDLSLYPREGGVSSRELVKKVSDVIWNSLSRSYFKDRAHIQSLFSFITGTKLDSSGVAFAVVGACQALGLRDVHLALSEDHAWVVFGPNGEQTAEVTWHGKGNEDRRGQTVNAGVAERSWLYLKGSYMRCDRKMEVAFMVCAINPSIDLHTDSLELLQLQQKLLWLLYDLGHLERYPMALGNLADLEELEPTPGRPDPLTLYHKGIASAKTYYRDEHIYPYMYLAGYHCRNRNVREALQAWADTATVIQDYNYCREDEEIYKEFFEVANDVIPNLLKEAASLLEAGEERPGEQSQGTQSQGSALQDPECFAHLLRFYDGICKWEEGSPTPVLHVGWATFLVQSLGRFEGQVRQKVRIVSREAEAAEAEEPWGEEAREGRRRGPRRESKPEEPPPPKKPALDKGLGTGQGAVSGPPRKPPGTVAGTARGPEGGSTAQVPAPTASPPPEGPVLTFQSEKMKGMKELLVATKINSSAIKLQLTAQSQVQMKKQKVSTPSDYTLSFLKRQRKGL

Potency, inactive:
O=CN1CCN(C2CC(=O)N(c3ccc(Br)cc3)C2=O)CC1 (centres undefined)

Potency, inconclusive:
Clc1ccc(OCCCNCc2ccccc2)c(Br)c1 12.6 µM [inhibitor, partial curve], CN(c1cccc(NC(=O)c2ccc(Cl)c(S(=O)(=O)Nc3ccccc3)c2)c1)S(C)(=O)=O 39.8 µM [inhibitor, single point], O=C(/C=C/c1ccccc1)Nc1cc(NC(=O)/C=C/c2ccccc2)cc(C(=O)O)c1 11.2 µM [quencher, side channel, partial curve], Cc1cc(C)cc(-c2cc3c(c(-c4c(O)c(-c5cc(C)cc(C)c5)cc5c4CCCC5)c2O)CCCC3)c1 6.31 µM [quencher, side channel, single point], CCCOc1ccc(NC(=O)CC2C(=O)N(Cc3ccccc3)C(=S)N2Cc2cccs2)cc1 (centres undefined) 3.16 µM [quencher, side channel, partial curve], CC(=O)c1sc(NC(=O)COc2ccc(Cl)cc2Cl)nc1C 10 µM [inhibitor, partial curve], CC(=O)c1ccc(Sc2nnnn2-c2ccccc2)c([N+](=O)[O-])c1 44.7 µM [inhibitor, partial curve, poor fit], Cc1noc(C)c1C(=O)OCC(=O)c1ccc[nH]1 0.708 µM [inhibitor, partial curve, poor fit], Oc1c(Br)cc(/C=N/n2c(-c3ccccc3)n[nH]c2=S)cc1Br 22.4 µM [quencher, side channel, single point], CN(C)/C=N/c1nc(-c2ccc3ccccc3c2)cs1 35.5 µM [quencher, side channel, single point], O=C(O)c1ccc2nc(-c3ccco3)c(-c3ccco3)nc2c1 8.91 µM [quencher, side channel, partial curve], CN(C)c1ccc(-c2ccc3ncnc(-n4ccnc4)c3c2)cc1 35.5 µM [quencher, side channel, single point], O=C(COC(=O)/C=C/c1ccc(Cl)cc1)Nc1ccccc1 39.8 µM [fluorescent, side channel, single point], O=[N+]([O-])c1ccc(O)c(/C=N/Nc2ccccc2[N+](=O)[O-])c1 22.4 µM [quencher, side channel, partial curve], COc1ccc(NC(=O)C2c3cc(OC)c(OC)cc3C(=O)N(C)C2c2cccnc2)cc1OC (centres undefined) 25.1 µM [inhibitor, single point], Cc1cccc2cc3c(N)c(C(=O)N4CCCc5ccccc54)sc3nc12 10 µM [quencher, side channel, partial curve], COC(=O)CSc1nc(N)c2c3c(sc2n1)C(c1ccccc1)SC(c1ccccc1)C3 (centres undefined) 20 µM [quencher, side channel, partial curve], Cc1cccc(CN2CCN(C(=O)c3cccc4ccccc34)CC2)c1 11.2 µM [inhibitor, partial curve], CC1CN(C(=O)CCC(=O)NCc2ccccn2)c2ccccc2O1 (centres undefined) 3.98 µM [inhibitor, single point], COC(=O)C1=C(C)Nc2ccc(C)cc2S1 5.01 µM [quencher, side channel, single point], Cc1cc(OCC(=O)N(C)C2CCCCC2)ccc1Cl 22.4 µM [fluorescent, side channel, single point], Cc1ccc(-c2csc(NC(=O)c3cccc([N+](=O)[O-])c3C(=O)O)n2)cc1 17.8 µM [quencher, side channel, partial curve], O=[N+]([O-])c1ccc(-c2nc(Nc3ccc(O)cc3)c3ccccc3n2)cc1 2.51 µM [quencher, side channel, full curve], O=C(CC(=O)Nc1ccc(Br)cc1)Nc1ccc(Br)cc1 35.5 µM [inhibitor, single point], CC(CCc1ccc(O)cc1)NCCC(c1ccccc1)c1ccccc1 (centres undefined) 31.6 µM [inhibitor, single point], Cc1cc(C)nc(N2CCCC(C(=O)NCc3ccc4c(c3)OCO4)C2)n1 (centres undefined) 7.08 µM [inhibitor, single point], O=C(/C=C/c1ccco1)OCc1nnc(-c2ccc(Cl)cc2)o1 25.1 µM [quencher, side channel, single point], O=C(N/N=C/c1ccccc1Br)c1ccc(CSc2cccc3cccnc23)cc1 11.2 µM [inhibitor, partial curve], O=C1OC(c2cccs2)=N/C1=C\c1ccc(-c2cccc(Cl)c2)o1 28.2 µM [quencher, side channel, single point], O=C(CSc1ccc(Cl)cc1)NCc1ccco1 35.5 µM [fluorescent, side channel, single point], O=C(Cn1nc(-c2ccc3c(c2)OCCO3)ccc1=O)Nc1cccc(NC(=O)c2ccccn2)c1 39.8 µM [inhibitor, single point], O=C(CSc1nnc2scc(-c3ccc(Cl)cc3)n12)NCc1ccco1 1.58 µM [inhibitor, partial curve, poor fit], CCc1cc2c(-c3ccccc3)cc(=O)oc2cc1OC(C)C(C)=O (centres undefined) 22.4 µM [fluorescent, side channel, partial curve], c1ccc2c(NCCN3CCOCC3)nc(-c3ccc4c(c3)OCO4)nc2c1 4.47 µM [quencher, side channel, full curve], COc1ccc(/C=N/NS(=O)(=O)c2ccccc2)cc1OC(=O)c1ccc(C)cc1 17.8 µM [quencher, side channel, partial curve], c1ccc2c(Nc3ccc4c(c3)OCCO4)c3c(nc2c1)CCC3 17.8 µM [inhibitor, single point], O=C(COc1ccccc1-c1ccccc1)NNC(=O)NC1CCCCC1 12.6 µM [fluorescent, side channel, partial curve], O=C(Nc1ccc(NC(=O)c2cc3ccccc3o2)cc1)c1ccc2c(c1)OCCO2 35.5 µM [fluorescent, side channel, single point], Cn1c(=O)cc(SCC(=O)NCCCN2CCN(c3ccccc3F)CC2)c2ccccc21 31.6 µM [inhibitor, single point], COc1cc2c(Cc3c4c5c(cc(OC)c(OC)c5c5c(OC)c(OC)ccc35)CCN4C)c3c4c(cc(OC)c(OC)c4c2cc1OC)CCN3C 10 µM [quencher, side channel, partial curve], COc1ccc(-c2nn(-c3ccccc3)cc2/C=C/C(=O)OCC(=O)Nc2cccc(C#N)c2)cc1 31.6 µM [inhibitor, partial curve, poor fit], Cc1cc2ccccc2n1CCNC(=O)c1ccc(S(=O)(=O)N2CCOCC2)cc1 31.6 µM [fluorescent, side channel, single point], CC(C)C(C(=O)N1CCN(Cc2ccccc2)CC1)c1ccccc1 (centres undefined) 0.794 µM [fluorescent, side channel, full curve, poor fit], Cc1nnc(C)n1/N=C/c1cc(Br)cc(Br)c1O 31.6 µM [quencher, side channel, single point], CC1=C(C(=O)Nc2ccccc2)C(c2cccc([N+](=O)[O-])c2)Nc2nc3ccccc3n21 (centres undefined) 22.4 µM [quencher, side channel, partial curve], COc1ccc(-c2nnc(SCC(=O)Nc3ncc(C(F)(F)F)cc3Cl)n2CC(C)C)cc1 11.2 µM [fluorescent, side channel, partial curve], O=C(O)c1ccc(N=Nc2c(O)ccc3ncccc23)cc1 8.91 µM [quencher, side channel, partial curve], CCCCNC(=O)CCn1nc(-c2ccccc2)c2ccccc2c1=O 39.8 µM [fluorescent, side channel, single point], CCCCNC(=S)N(C)/N=C/c1c(C)[nH]c2ccccc12 28.2 µM [quencher, side channel, partial curve], CC1=Nc2ccccc2N=C(NC(=O)c2ccccc2)C1c1ccc(Cl)cc1 (centres undefined) 12.6 µM [quencher, side channel, partial curve], CCC(C)NC(=O)c1cc2c(=O)n3cccc(C)c3nc2s1 (centres undefined) 39.8 µM [inhibitor, single point], Cc1cc(C)c(C(=O)/C=C/c2ccc3c(c2)OCO3)c(=O)[nH]1 17.8 µM [fluorescent, side channel, partial curve], COc1ccc(CNC(=S)Nc2ccc(F)c(Cl)c2)cc1OC 31.6 µM [quencher, side channel, single point]
